Assay results taken from the supplement of paper PMC3334620.
In all, about 33,000 sequences were measured (“E-score (-0.5 to 0.5)”: median about -0.012, highest 2% from about 0.27 on). This is one part of the list.

Molecular target: T1, Vhr1 (UniProt P40522)
T1 sequence: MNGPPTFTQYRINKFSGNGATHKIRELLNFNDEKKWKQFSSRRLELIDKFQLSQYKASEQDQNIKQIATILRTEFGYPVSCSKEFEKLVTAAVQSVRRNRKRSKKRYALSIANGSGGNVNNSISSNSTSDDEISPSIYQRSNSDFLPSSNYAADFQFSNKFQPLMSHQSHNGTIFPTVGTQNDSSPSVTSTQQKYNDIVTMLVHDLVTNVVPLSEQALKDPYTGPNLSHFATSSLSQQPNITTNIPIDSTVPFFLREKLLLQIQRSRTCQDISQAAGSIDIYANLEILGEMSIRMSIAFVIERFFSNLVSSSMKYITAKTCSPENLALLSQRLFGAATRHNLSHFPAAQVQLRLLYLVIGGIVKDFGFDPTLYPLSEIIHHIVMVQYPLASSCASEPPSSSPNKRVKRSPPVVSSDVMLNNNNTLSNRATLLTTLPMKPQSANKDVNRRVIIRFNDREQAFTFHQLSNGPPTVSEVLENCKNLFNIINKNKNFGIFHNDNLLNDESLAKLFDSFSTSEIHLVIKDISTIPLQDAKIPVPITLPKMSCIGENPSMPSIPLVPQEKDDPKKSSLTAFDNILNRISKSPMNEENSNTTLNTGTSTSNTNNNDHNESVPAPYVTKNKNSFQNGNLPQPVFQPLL
Assay: PBM E-score (8-mer binding enrichment) (E-score (-0.5 to 0.5)); higher = stronger / more preferred TF binding; most listed sequences are background and not binding sites
Details: protein concentration: 200 nM; construct: GST-full length
Procedure, shortened: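 Masliner-normalised scans of fluorescent anti-GST signal were the basis for scoring. That signal came from GST-tagged yeast transcription factors applied at about 100-200 nM to double-stranded universal all-10-mer Agilent arrays on fresh or once-stripped slides. Each ungapped eight-base word, pooled with its reverse complement, received an E-score from the Universal PBM Analysis Suite.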

Row | Sequence | PBM E-score
1 | AGGTAAAC | -0.06
2 | CGTGCAAG | -0.0988
3 | GAATCCAC | 0.106
4 | CATATCCG | 0.175
5 | ATGACCAC | 0.176
6 | GATTCAAC | 0.202
7 | GTGCGGAA | 0.0128
8 | GGACCATA | -0.0391
9 | AATTCCGC | -0.176
10 | AAAAGCAT | -0.124
11 | ACGCATTC | 0.0234
12 | CACAGATA | -0.0619
13 | AGGGACAC | 0.16
14 | GGGGCTTA | -0.382
15 | CAGTCTGC | -0.0217
16 | AAACACCG | 0.0312
17 | ACGATAGC | -0.174
18 | AGCGACGC | -0.0461
19 | ACTTTAGA | -0.184
20 | ACTTCACG | -0.211
21 | AACGGAGA | -0.105
22 | ATATCGCG | 0.18
23 | CCTAGCCC | -0.18
24 | AAAGATGT | -0.0237
25 | GAGGAGCC | -0.112

Row | Sequence | PBM E-score
26 | CGTTGATC | -0.0879
27 | CACAGGCA | 0.161
28 | CGCGTGAG | 0.136
29 | AGCGAGCT | 0.0721
30 | AGGTTCAC | -0.159
31 | AAACTACT | -0.0389
32 | GACCGGTA | -0.143
33 | CAATCTAA | -0.13
34 | AGTGTATA | -0.00477
35 | GAGTTCGC | 0.059
36 | ACTCCAGG | 0.0235
37 | GCTAGTAA | -0.0868
38 | CGCCTTAG | -0.174
39 | CTCCACTC | -0.247
40 | AACGCCCA | -0.0717
41 | CAGAAACC | 0.228
42 | CACAGGGA | 0.0855
43 | CGTTCGGA | 0.104
44 | AGCTGTCA | -0.0511
45 | AACGGCTC | -0.00563
46 | ACGCGTGA | 0.214
47 | ACTGTGGC | -0.0773
48 | CGTGCGTC | -0.00614
49 | CATTCACC | 0.0887
50 | CAAGGCTG | -0.0822

Row | Sequence | PBM E-score
51 | GGCAGTCA | 0.345
52 | AACGTACA | -0.0325
53 | GGTAACTA | 0.12
54 | CGGCCGGC | -0.05
55 | CAGGAAAG | -0.207
56 | CCTAAAAG | -0.258
57 | AATTAGAC | -0.0756
58 | ATGACTAG | 0.369
59 | AGGAGCGA | -0.0524
60 | ATTGGTCA | 0.0198
61 | ATCCGGCA | 0.136
62 | CGACGGGA | 0.0975
63 | AGTAGTAA | 0.0586
64 | AGATATCG | 0.119
65 | AGGGACCG | -0.132
66 | CACTGTGA | 0.154
67 | CTCTTGAA | -0.243
68 | TAGTGGCA | -0.0381
69 | AAAGGCAG | -0.0316
70 | CAACGATC | -0.00177
71 | TCAACGGA | -0.0202
72 | ATCATCGA | 0.17
73 | TACGCAAA | -0.0838
74 | ATAGAACG | -0.109
75 | AGTCGAGA | 0.0118

Row | Sequence | PBM E-score
76 | GCAAGAGC | -0.115
77 | GAATCCCC | 0.0139
78 | CACATCCG | 0.161
79 | ACTCAGTC | 0.314
80 | GCCAGTCA | 0.244
81 | CGATGACG | -0.154
82 | CCGATCTC | 0.0839
83 | CGGTACAG | 0.11
84 | AAGGACCT | -0.125
85 | CGGTTAAG | -0.167
86 | AGTGAATC | 0.109
87 | CTCTCGAC | -0.102
88 | GCGATTCA | 0.241
89 | AGCTGATC | 0.151
90 | AGCATAAT | 0.0173
91 | GCCCTCTA | -0.119
92 | AAAACATG | 0.153
93 | CAGTTACA | -0.0736
94 | ACGCTCAG | -0.107
95 | GCAGGGCA | -0.135
96 | CCGGGTCA | 0.0894
97 | CACATTTA | -0.0487
98 | CAGAAAGA | -0.138
99 | TGAAATCA | 0.069
100 | GCATACTA | 0.129

Row | Sequence | PBM E-score
101 | CCTACCAG | -0.126
102 | CCTAGCTA | 0.166
103 | GAACCCCA | 0.0653
104 | CGACTAAC | 0.303
105 | ACCGATGA | 0.00055
106 | ATACAACC | 0.0739
107 | CCCATTCA | 0.203
108 | ACTTGAAA | -0.166
109 | AGGTTGTG | -0.0501
110 | ATGGCCGC | -0.206
111 | CACGTAGA | -0.0788
112 | CGTTTGGC | -0.0534
113 | CGTTCATA | -0.112
114 | CAACCTGA | 0.103
115 | CACGATAA | -0.0238
116 | CATGCCGC | 0.104
117 | GGTCGGCA | -0.138
118 | AAGAGGCT | -0.146
119 | ACATCTTC | 0.0278
120 | GATCGCGC | 0.0429
121 | TCCCTAGA | -0.171
122 | ATTTATCG | 0.0525
123 | CGAGTGCC | -0.0432
124 | AACAAGGA | -0.18
125 | GGAGCTCC | -0.0617

Row | Sequence | PBM E-score
126 | CCTGGGCG | 0.0307
127 | ACCGTTAA | -0.0322
128 | GAGTTTGA | -0.077
129 | ACGGAAAC | -0.141
130 | ACCTGGCC | -0.00255
131 | CATATACG | 0.112
132 | GTAGCCAC | 0.0273
133 | GATGATGA | 0.144
134 | AAGATTTG | -0.09
135 | CAACGTCC | -0.169
136 | AAGATTGT | -0.0511
137 | ATTACTCC | 0.0722
138 | AGGGGAAA | -0.351
139 | AACTGCGC | -0.0351
140 | CCGTGACG | -0.0471
141 | AATTGGCG | -0.208
142 | CCTCGTTA | 0.113
143 | GCGGCTTA | 0.0596
144 | GTCAAATA | 0.103
145 | CTTATATA | 0.12
146 | CGCACTTC | -0.237
147 | AAATTACA | -0.0342
148 | GAGTAGGA | 0.0112
149 | CAACTAGA | -0.133
150 | AAGATATC | 0.144

Row | Sequence | PBM E-score
151 | CTATTTGC | -0.203
152 | CTCGCATC | -0.0696
153 | AGCATGAA | 0.0889
154 | ATGACCTC | -0.0512
155 | AATGGTCT | -0.106
156 | ACTCAGCG | 0.133
157 | GGGCAAGA | -0.072
158 | CACGGCTC | -0.0633
159 | GCGTACAA | -0.0377
160 | ACTATGCG | 0.151
161 | CTTCAGAC | -0.157
162 | CTATGTTA | 0.122
163 | CCGTTTAC | -0.084
164 | CATGTACA | -0.0124
165 | GATTAGAA | -0.0196
166 | AACCAACT | 0.0869
167 | GTAGAGAC | -0.0289
168 | AAGTGTGC | -0.064
169 | CACTACCA | 0.208
170 | GCTGTTAC | -0.127
171 | ACGCATCC | 0.0371
172 | CCTTTTGA | -0.147
